Laboratory results published in ChEMBL document CHEMBL1201862, “PubChem BioAssay data set” (2004).
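All cell lines were grown in 96-well plates and treated with compound for 48 hours. GI50 marks 50% less growth.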 Active and inactive are the calls of the source. No stated cut-off is given here; in the data, active = GI50 up to about 1.1 µM and inactive = higher.

Each compound was assayed on NCI-H322M (assay: NCI anticancer screen, dose series, 48 h).

| Compound | GI50 |
| --- | --- |
| CCCCc1ccc(Nc2nc(OC)c3ncn(C4CC(O)C(CO)O4)c3n2)cc1 (configuration not stated) | inactive: 16.7 µM |
| CCN(CC)CCCNc1nncc2cc3c([nH]c4ccccc43)c(C)c12 | inactive: 4.84 µM |
| COc1cc(C2C3=C(NC(=O)C2C#N)c2ccc4ccccc4c2OCC3)cc(OC)c1OC (configuration not stated) | inactive: 30 µM |
| CC(C)N1C=[N+](C(C)C)CC1 | inactive: > 100 µM |
| C=CCCCN(C(=O)c1ccccc1)c1ccc(C(=O)OC)o1 | inactive: > 100 µM |
| COc1ccc(OC)c(NS(=O)(=O)c2ccc3nc(C)n(NS(=O)(=O)c4cc(OC)ccc4OC)c(=O)c3c2)c1 | inactive: > 100 µM |
| COc1nc2ncc([C@@H](O)[C@H](O)CO)nc2c(=O)n1C | inactive: > 100 µM |
| Cc1cc(OC(=O)Nc2cccc3ccccc23)c(C(C)C)cc1C(=S)Nc1ccccc1 | inactive: 22.2 µM |
| COc1ccc(OC)c(C2CCc3cnc4nc(N)nc(N)c4c3C2)c1 (configuration not stated) | inactive: > 100 µM |
| NC(c1ccccc1)(C(F)(F)F)P1(=O)OC(=O)c2ccccc2O1 (configuration not stated) | inactive: 35.2 µM |
| [N-]=[N+]=Nc1nc2ccccc2c(N=[N+]=[N-])c1Cl | inactive: > 100 µM |
| N#CC1=C(N2CCOCC2)CCC1 | inactive: > 100 µM |
| Cc1cc(O)nc(NNC(C#N)c2ccccc2O)n1 (configuration not stated) | inactive: 5.92 µM |
| Cc1ccc([S+]([O-])C[C@@]2(C(F)F)NC(=O)NC2=O)cc1 (some centres not stated) | inactive: > 100 µM |
| COc1ccc(NC(=O)C2C(=O)N(c3ccc(OC)cc3)C(=O)/C2=N\NC(N)=O)cc1 (configuration not stated) | inactive: 39.6 µM |
| CN(C)/C=C/c1ccncc1 | inactive: > 100 µM |
| COCOC1C=CCCCC2=CC(C)=C(CC1)O2 (configuration not stated) | inactive: > 100 µM |
| O=C(c1c(F)c(F)c(F)c(F)c1F)n1c(=S)n(C(=O)c2c(F)c(F)c(F)c(F)c2F)c2ccccc21 | inactive: > 100 µM |
| CCOc1cc2c(NCCCN(CCO)CCO)ncnc2c(OCC)c1OCC | inactive: > 100 µM |
| Cc1ccc(S(=O)(=O)c2ccccn2)cc1 | inactive: > 100 µM |
| CCOC(=O)CCC(NC(=O)OCc1ccccc1)C(=O)NC(CCC(=O)OCC)C(=O)NNC(=O)OC(C)(C)C (configuration not stated) | inactive: > 100 µM |
| COc1ccc(C2=NNC(=O)OC2c2ccccc2)cc1 (configuration not stated) | inactive: > 100 µM |
| COc1ccc(N2CC(=O)N(C(=O)COc3ccc(OCC(=O)N4C(=O)CN(c5ccc(OC)cc5)C4=S)cc3)C2=S)cc1 | inactive: 16 µM |
| CC1(C)C/C=C\CCC(O)C(O)CCC(C)(C)C1=O (configuration not stated) | inactive: > 100 µM |

| Compound | GI50 |
| --- | --- |
| O=C(OC1CN2CCC1CC2)N(c1ccccc1)c1ccccc1 (configuration not stated) | inactive: > 100 µM |
| N#CC1=C(c2ccccc2)OC2(N)OC(c3ccccc3)=C(C#N)C12C#N (configuration not stated) | inactive: 55.3 µM |
| N=C(N)N/N=C/c1c(-c2ccccc2[N+](=O)[O-])nc2sccn12 | inactive: 45.7 µM |
| S=C(N/N=C(/c1ccccc1)c1ccccn1)Nc1ccccc1Cl | active: < 0.01 µM |
| CN1CSC(=S)N(c2c3ccccc3nc3ccc(Br)cc23)C1 | inactive: 7.35 µM |
| CCc1cc(C(=O)OC)cn1C(=N)c1ccc(Cl)cc1 | inactive: > 100 µM |
| CC1(C)C2CCC1C(=O)[C@@]1(C=CC(=O)CC1)C2 (some centres not stated) | inactive: 85.5 µM |
| COc1ccccc1N(CN1C(=O)CCC1C(=O)O)C(C)=O (configuration not stated) | inactive: > 100 µM |
| CCCCCCCCCCCCCC(=O)OCC1OC(n2cc(F)c(=O)[nH]c2=O)C(NC(=O)OCc2ccccc2)C(OC(=O)CCCCCCCCCCCCC)C1O (configuration not stated) | inactive: > 100 µM |
| CCOc1ccc2c(c1)[n+]([O-])c(C(N)=O)c(N)[n+]2[O-] | inactive: > 100 µM |
| COC1=CC2(C=CC1=O)c1cc(OC)c(OC)cc1CCN2C(=O)c1ccccc1 (configuration not stated) | inactive: > 100 µM |
| CC(C)(C)OC(=O)CC(NC(=O)OC(C)(C)C)C(=O)Oc1ccc([N+](=O)[O-])cc1 (configuration not stated) | inactive: 32.1 µM |
| CC(=O)Oc1ccc2oc(=O)cc(C)c2c1 | inactive: > 10 µM |
| FC(F)(F)c1ccc(/C=N/C23CC4CC(CC(C4)C2)C3)cc1 | inactive: > 100 µM |
| Cc1nnc(N/N=C2\C(=O)Nc3ccccc32)n1N | inactive: > 100 µM |
| COc1cc(-c2ccc(NC(=O)SCCC(=O)O)cc2OC)ccc1NC(=O)SCCC(=O)O | inactive: > 100 µM |
| CSC1SCC2C(=O)N(C)C(C(C)C)C(=O)OCC(NC(=O)c3cnc4ccccc4n3)C(=O)NC(C)C(=O)N(C)C1C(=O)N(C)C(C(C)C)C(=O)OCC(NC(=O)c1cnc3ccccc3n1)C(=O)NC(C)C(=O)N2C (configuration not stated) | active: 0.0075 µM |
| Nc1nc(O)c2ncn(C3OC(CO)C(O)C3O)c2n1 (configuration not stated) | inactive: 69.3 µM |
| [N-]=[N+]=NC(CCl)c1cn([C@H]2C[C@H](O)[C@@H](CO)O2)c(=O)[nH]c1=O (some centres not stated) | inactive: > 100 µM |
| CCC1(O)C(=O)OCc2c1cc1n(c2=O)Cc2cc3cc(N)ccc3nc2-1 (configuration not stated) | active: 0.108 µM |
| O=C1/C(=C/c2ccccc2Cl)COc2ccccc21 | inactive: 18.9 µM |
| CC1OC(=O)C(C(C)C)NC(=O)C(C(C)C)OC(=O)C(C(C)C)NC(=O)C(C)OC(=O)C(C(C)C)NC(=O)C(C(C)C)OC(=O)C(C(C)C)NC(=O)C(C)OC(=O)C(C(C)C)NC(=O)C(C(C)C)OC(=O)C(C(C)C)NC1=O (configuration not stated) | active: 0.0036 µM |
| COc1ccccc1/C=C1\CCC(CCN(C)C)(C2=CCCC2)C1=O (configuration not stated) | inactive: 18.9 µM |
